Results as given in the supplement of paper PMC3334620.
The full ranking holds about 33,000 sequences; the median of “E-score (-0.5 to 0.5)” is about -0.035, and the highest 2% start at about 0.35. This is one part of the list.

The sequences below were run against T1, Pdr3 (UniProt P33200) (assay: PBM E-score (8-mer binding enrichment) (E-score (-0.5 to 0.5)); higher = stronger / more preferred TF binding; most listed sequences are background and not binding sites). Conditions: protein concentration: 200 nM; construct: GST-full length.
T1 sequence: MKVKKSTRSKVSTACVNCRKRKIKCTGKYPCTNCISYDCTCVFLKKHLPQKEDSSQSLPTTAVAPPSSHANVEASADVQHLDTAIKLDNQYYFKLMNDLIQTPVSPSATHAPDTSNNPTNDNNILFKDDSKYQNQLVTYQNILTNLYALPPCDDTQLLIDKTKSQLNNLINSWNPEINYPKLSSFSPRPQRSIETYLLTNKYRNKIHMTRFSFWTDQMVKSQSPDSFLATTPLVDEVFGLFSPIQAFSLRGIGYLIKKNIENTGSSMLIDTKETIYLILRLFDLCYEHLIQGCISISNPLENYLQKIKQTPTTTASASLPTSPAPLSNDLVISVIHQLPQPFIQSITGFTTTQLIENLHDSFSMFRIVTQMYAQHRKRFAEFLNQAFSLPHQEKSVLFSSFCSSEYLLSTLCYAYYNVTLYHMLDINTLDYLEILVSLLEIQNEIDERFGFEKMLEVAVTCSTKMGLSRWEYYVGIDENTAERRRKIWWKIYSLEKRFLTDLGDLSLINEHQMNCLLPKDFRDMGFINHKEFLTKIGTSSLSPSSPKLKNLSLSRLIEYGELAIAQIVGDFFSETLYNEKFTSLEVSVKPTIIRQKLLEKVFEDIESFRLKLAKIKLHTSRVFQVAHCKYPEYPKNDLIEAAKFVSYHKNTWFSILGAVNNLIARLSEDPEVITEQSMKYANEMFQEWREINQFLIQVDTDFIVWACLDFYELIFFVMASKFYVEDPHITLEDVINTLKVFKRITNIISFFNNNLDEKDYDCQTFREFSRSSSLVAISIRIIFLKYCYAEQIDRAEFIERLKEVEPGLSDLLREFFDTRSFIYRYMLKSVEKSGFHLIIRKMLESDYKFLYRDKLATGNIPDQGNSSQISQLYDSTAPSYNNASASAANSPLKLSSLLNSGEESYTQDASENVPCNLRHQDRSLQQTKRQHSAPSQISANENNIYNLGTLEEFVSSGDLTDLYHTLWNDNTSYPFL
How it was run: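 GST-tagged yeast TFs (full-length or DNA-binding domain) were made by PURExpress in vitro transcription/translation and applied at about 100-200 nM to universal all-10-mer Agilent arrays. The arrays were made double-stranded by primer extension, on fresh or once-stripped slides. Bound protein was detected with fluorescent anti-GST, and scans were normalised with masliner. Each ungapped eight-base word, pooled with its reverse complement, received an E-score (modified Wilcoxon-Mann-Whitney statistic) from the Universal PBM Analysis Suite.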

Row | Sequence | PBM E-score
1 | CTACCACC | -0.187
2 | GTGACCCA | -0.14
3 | CGTGCACG | -0.00114
4 | AATAACGA | -0.0186
5 | CGATACCC | -0.00232
6 | AGTGTTCG | -0.0373
7 | AGACAGGC | -0.0117
8 | AAGGTCCT | -0.22
9 | ATACACGA | -0.0447
10 | CATACATA | 0.0249
11 | AATCGAGT | 0.00341
12 | ATGTTAAA | -0.0642
13 | CATTGCCC | -0.00477
14 | ACGGATGG | 0.289
15 | ACGAGGGC | -0.0865
16 | GCCTCATA | 0.0142
17 | AGTAATCC | 0.00373
18 | AGGGCGAG | -0.129
19 | GAAGAGTC | -0.16
20 | CCCTGATA | -0.251
21 | CGGTAAAG | 0.122
22 | CTGGACCC | -0.078
23 | ACGATCTA | -0.265
24 | ACTCAAGC | -0.00858
25 | GATCGCAC | -0.0775

Row | Sequence | PBM E-score
26 | ACTGGTCG | -0.0903
27 | GACAGCAA | -0.044
28 | AATGAGCT | 0.00441
29 | ATCGCAAC | -0.0656
30 | AATATGCA | -0.0816
31 | ATCAGACC | 0.0876
32 | GATGTAGC | -0.192
33 | GGAAGTCC | 0.237
34 | CTGATTCA | -0.106
35 | CAGTTGGA | -0.0903
36 | GACTATCA | -0.205
37 | ATCAAAAC | -0.0437
38 | CGTCGATA | 0.154
39 | AAAGGCTC | -0.22
40 | ACCTCTTA | 0.213
41 | TCTCACAA | 0.0933
42 | AACTAAAC | -0.0394
43 | CGCCGGAG | 0.299
44 | ATCTAAAT | 0.126
45 | CTTCGGTC | 0.065
46 | CTTTCGCA | -0.0763
47 | CACGAGGC | -0.0528
48 | CGGCAAAA | 0.0451
49 | CGGTCGTA | 0.0889
50 | GCAAAAGC | -0.174

Row | Sequence | PBM E-score
51 | GGGGTCCA | -0.138
52 | ACGAGGCA | -0.211
53 | CAAGGTAG | -0.0759
54 | GCCATCGA | 0.125
55 | CAGGAGGC | -0.045
56 | ACTCCTTG | -0.0261
57 | ACGCTACC | -0.183
58 | AAATACGA | -0.0616
59 | ATTTTATC | -0.0377
60 | AGAGGCCC | -0.0473
61 | AGCGATTC | -0.0275
62 | GCCAACCC | -0.0135
63 | GAGGTTAA | -0.0985
64 | ATCGTGAC | 0.0473
65 | CAATTACC | -0.0711
66 | ATTCTCGA | -0.0715
67 | GCTTAGTA | -0.211
68 | CCATAGTA | 0.107
69 | AGTGAACG | -0.0964
70 | CTGCTACC | -0.226
71 | GCTGTTAA | -0.185
72 | CAGTGACG | 0.0566
73 | ACGCGTTG | -0.00051
74 | CCGTCCTA | -0.0127
75 | ACAGCTAT | -0.195

Row | Sequence | PBM E-score
76 | GTACCAAC | 0.00255
77 | ATCGAAAC | 0.0402
78 | GCCTAAAA | -0.218
79 | CCTGCGCA | -0.0974
80 | CAGGCCCA | -0.204
81 | ACGCTGAC | -0.14
82 | CTTACGCC | -0.041
83 | ATCGGGTA | 0.0685
84 | TACATCGA | -0.0326
85 | CCAGTTCG | 0.0412
86 | AGGAATCC | 0.0872
87 | TATGAAGA | 0.0594
88 | GCATTTTA | 0.198
89 | AAGCAATT | -0.155
90 | AGATGTGA | 0.0386
91 | CATCGACC | 0.0651
92 | GAATGATA | 0.18
93 | ACGGCACT | 0.0609
94 | AAAACTCA | 0.0356
95 | CGTGTGAG | -0.0242
96 | AAACCCTT | -0.185
97 | GATATCTA | -0.14
98 | CATCGCCA | 0.0655
99 | ACGATGTC | -0.0633
100 | AGCGTTAT | -0.208

Row | Sequence | PBM E-score
101 | CCAAGATA | -0.131
102 | AACTGGCC | 0.0895
103 | CATGCCAG | -0.14
104 | GTTCTCTA | -0.0723
105 | CGCTTAGA | -0.189
106 | GAAGGTGC | 0.025
107 | CGCCGTGC | 0.135
108 | ACATTTAG | -0.301
109 | TCGATCGA | 0.222
110 | AATCCTGG | -0.0835
111 | GATAGGTA | -0.00733
112 | GCTCGCGA | 0.188
113 | TACTAGCA | -0.0209
114 | AGTGTTTG | -0.04
115 | TCCAGTAA | -0.156
116 | CCCACGAA | 0.0513
117 | CTTAGGAC | -0.202
118 | ACGAATCG | 0.0649
119 | CGGTTGCA | -0.0738
120 | CGGAGCCG | 0.369
121 | GATACAGA | 0.00655
122 | AGCGAACG | -0.134
123 | ATTTCGCC | 0.175
124 | CGTTTCTA | -0.152
125 | ATCATGAG | -0.262

Row | Sequence | PBM E-score
126 | GATACCTA | 0.0415
127 | AGCTACAC | -0.121
128 | CGGCTGAC | 0.231
129 | CTTCTCGC | 0.0476
130 | CGCGCGAC | 0.239
131 | TCCGAACA | 0.314
132 | AAAGGGGA | -0.0513
133 | ACACTGTG | 0.0268
134 | ACACGCAC | -0.0668
135 | AGTGACCA | -0.00406
136 | GGCGCGAA | 0.106
137 | GTGAACAC | -0.094
138 | ATATATTA | 0.117
139 | TCTTAGCA | -0.215
140 | AGTAAGTG | -0.145
141 | CACGCAAC | 0.0106
142 | AACACCTA | -0.269
143 | ACGGTCAC | -0.0325
144 | CCCATGCC | 0.0609
145 | CAGCAGCC | -0.0725
146 | CGTACCAC | -0.102
147 | GCTACCCC | -0.147
148 | CAGAAGGG | -0.181
149 | GACACACA | -0.0609
150 | ATCCGCCC | 0.251

Row | Sequence | PBM E-score
151 | ACGCCACG | -0.181
152 | CCGCCAGA | 0.179
153 | CCCAGGCA | -0.0845
154 | AGACGTAC | -0.0286
155 | AACCTCTC | -0.0481
156 | AACGGCCG | 0.344
157 | CGATACTC | 0.0572
158 | CCGTGAGG | 0.0332
159 | TCGTTAGA | -0.24
160 | CTGTTGGC | -0.0902
161 | AGTTCTAT | -0.128
162 | ATGCGGAG | 0.0777
163 | ACAACATG | -0.0382
164 | ACGAGTGA | -0.0922
165 | ACACCTAT | -0.0637
166 | TGTTAGAA | -0.264
167 | GTAACTTA | -0.121
168 | GGTTTCAC | -0.0885
169 | GGCTGGGA | -0.0695
170 | GCCTCTCA | 0.0327
171 | CATCCCGA | 0.352
172 | GTATAAAA | 0.203
